Out of some 130,000 compounds screened, about 550 (0.42%) were called active. Inconclusive means that the source gave no clear call. Such entries were picked first, then a sample of the others. The call rests on the fitted dose curve; in most records, active means well fitted inhibition curve with a large enough effect; inconclusive means small, poorly fitted or top-dose-only effect, or effect the other way; inactive means flat fitted curve, though single readings scatter. Potencies of inconclusive entries are left out as doubtful fits.
Experiment: qHTS Assay for Inhibitors of the ERK Signaling Pathway using a Homogeneous Screening Assay; Stimulation with EGF; further: nearly all actives have a fitted effect of over 55% in size
Details: HEK293-V1b, EGF-stimulated phospho-ERK AlphaScreen
Summary of the method: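 Cell line HEK293 (stable V1b), low serum overnight. Pretreatment: compound 30 min, 37C. EGF 25 nM, 5 min. Detection: SureFire AlphaScreen, 5 h RT. AC50 via standard Hill equation.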
Potency means the concentration at half of the fitted maximal effect; tags describe the fitted curve by direction and shape.

SMILES | Potency
COc1ccccc1-c1cn[nH]c1-c1ccc(OCc2ccc(F)cc2)cc1O | inconclusive [inhibitor, single point]
NS(=O)(=O)c1ccc(N/N=C/c2ccc[nH]2)c([N+](=O)[O-])c1 | inconclusive [inhibitor, single point]
CCN1C(=O)/C(=C/C=C2\C=CN(CC)c3ccccc32)SC1=S | inconclusive [inhibitor, full curve]
COc1ccc(/C=C2\SC(=S)N(CC(=O)N3CCN(C)CC3)C2=O)cc1 | inconclusive [inhibitor, partial curve]
O=C(O)c1ccccc1C(=O)c1ccc(Oc2ccccc2)cc1 | inactive
Cc1ccccc1Nc1oc(-c2ccccc2)nc1-c1ccccc1 | inactive
CCCOc1nc2c(c(=O)n(C)c(=O)n2C)n1C | inactive
O=C(CN1CCN(c2ccc(C(F)(F)F)cn2)CC1)Nc1ccc2c(c1)OCO2 | inactive
CN(C)Cc1nnnn1-c1cccc(-n2nnnc2CN(C)C)c1 | inactive
CN1C(=O)/C(=C/C=C2/CCCN2C)N(C)C1=S | inactive
CN(CCOc1ccccc1)CC(=O)Nc1cc([N+](=O)[O-])ccc1Cl | inconclusive [inhibitor, single point]
CC1(c2ccccc2)CC(C)(C)N2C(=O)/C(=C3\SC(=S)NC3=O)c3cccc1c32 (centres undefined) | inconclusive [inhibitor, single point]
N#CCCCS(=O)(=O)c1nnnn1-c1ccc(Br)cc1 | inactive
CCOC(=O)C1(CCOc2ccccc2)CCN(Cc2nccn2CC)CC1 | inconclusive [inhibitor, single point]
COc1ccccc1-c1csc(NC(=O)c2ccc(N3C(=O)CCC3=O)cc2)n1 | active: 28.2 µM
Oc1ccc(N=Nc2cccc(C(F)(F)F)c2)cc1C=Nc1ccc(N2CCOCC2)cc1 | inactive
CCOc1ccc(C(=O)Nc2nc3ccccc3[nH]2)cc1OCC | inactive
CCN1C(=O)/C(=C/c2nc3ccccc3c(=O)n2-c2ccc(C)cc2)c2ccccc21 | inconclusive [inhibitor, partial curve]
c1ccc(-c2cn(-c3ccccc3)c3[n+]2CCS3)cc1 | inactive
COc1ccc(/C=C2\Oc3cc(OC(=O)N4CCOCC4)ccc3C2=O)cc1 | inconclusive [inhibitor, single point]
CC(C)c1cccc2c([Si](C)(C)C)c3c(nc12)-c1cccc(=O)n1C3 | inconclusive [inhibitor, single point]
CN1CCCN=C1/C=C\c1cccs1 | inactive
CC1=CC2=NC(=O)/C(=C\c3cn(C)c4ccccc34)C(=N)N2O1 | inconclusive [inhibitor, full curve, poor fit]

SMILES | Potency
O=[N+]([O-])c1cccc(Cl)c1NCCNS(=O)(=O)c1ccc(Cl)cc1 | inconclusive [inhibitor, partial curve]
Cc1cc([N+](=O)[O-])nn1CC(=O)Nc1cccc2nonc12 | inactive
S=C(NCC1CCCO1)Nc1ccc(Nc2ccccc2)cc1 (centres undefined) | inconclusive [inhibitor, single point]
O=[N+]([O-])c1cnc(Sc2ccncn2)s1 | active: 14.1 µM
CN(C)c1ccc(-c2ccc([C@H]3[C@@H]4C=CCC[C@@]4(C)C(=O)N3Cc3ccccc3)c(F)c2)cc1 | inconclusive [inhibitor, single point]
Nc1ncnc2c1ncn2C1OC(CO)C(O)C1O (centres undefined) | inconclusive [activator, single point]
Nc1ccccc1C(=O)NNc1c2ccccc2nc2ccccc12 | inconclusive [inhibitor, single point]
Brc1ccc(-c2csc(N3CCOCC3)n2)cc1 | inconclusive [inhibitor, single point]
CCOC(=O)C(C)/C(C)=N\Nc1ccc([N+](=O)[O-])cc1[N+](=O)[O-] (centres undefined) | inconclusive [inhibitor, partial curve]
O=c1c(-c2cccc(F)c2)nc2cncnc2n1-c1ccccc1 | inactive
O=C(/C=C/c1ccccc1)Nc1nc(-c2ccncc2)cs1 | inconclusive [inhibitor, single point]
CCCCCCNc1c([N+](=O)[O-])c(=O)sc2ccccc12 | inconclusive [inhibitor, single point]
CCOC(=S)SCC(=O)Nc1nc(-c2ccc(Br)cc2)cs1 | inconclusive [inhibitor, single point]
N#Cc1ccc(CN2CC[C@@]3(CCCN(S(=O)(=O)c4ccccc4)C3)C2)cc1 | inactive
Cc1cc(C)n(-c2ccc(C(=O)OCC(=O)Nc3ccc([N+](=O)[O-])cc3)cc2)n1 | inconclusive [inhibitor, single point]
C=CCn1c(-c2ccc(OC)c(OC)c2)n[nH]c1=S | inconclusive [activator, single point]
c1ccn(-c2ccc(-c3ccn[nH]3)cc2)c1 | inconclusive [inhibitor, single point]
CC(=O)c1ccc(N2CCN(C(=O)Nc3ccc(F)cc3F)CC2)cc1 | inactive
Cc1nc(S(=O)(=O)Cc2ccc(Cl)cc2)nc2c1CCC2 | inconclusive [activator, partial curve, poor fit]
COc1ccc(OCC(=O)N2CCN(c3nnc(-c4ccc(C)cc4)c4ccccc34)CC2)cc1 | inconclusive [inhibitor, single point]
CCOC(=O)C1=C(C)N=C2SC(C(=O)OC)=CC(=O)N2C1c1ccc(OC)cc1 (centres undefined) | inconclusive [inhibitor, partial curve, poor fit]
O=C(Nc1cccnc1)c1ccc(-c2ccc(Cl)cc2)o1 | inconclusive [inhibitor, partial curve]
CC[C@@]1(O)C(=O)OCc2c1cc1n(c2=O)Cc2cc3cc(O)ccc3nc2-1 | inactive

SMILES | Potency
COC(=O)CN1C(=S)N(c2ccc(Cl)cc2)C(=O)C1CC(=O)Nc1ccc(F)cc1 (centres undefined) | inconclusive [inhibitor, single point]
Cc1cccn2c(CNC3CCCc4ccccc43)c(C(=O)N3CCCCC3)nc12 (centres undefined) | inconclusive [inhibitor, partial curve, poor fit]
Cc1cccc2sc(NC(=O)c3ccc(NS(=O)(=O)c4cccs4)cc3)nc12 | inconclusive [inhibitor, single point]
CS(=O)(=O)Oc1ccc2c(c1)O/C(=C\C=C\c1ccccc1)C2=O | active: 7.94 µM
COc1ccc2c(c1)CCc1c-2nc2ccccc2c1N1CCOCC1 | inconclusive [inhibitor, single point]
CCOc1ccc(C2C3=C(CCCC3=O)Nc3ccc4ncccc4c32)cc1 (centres undefined) | inconclusive [inhibitor, single point]
CCN=C1S/C(=C\c2cn(CC(=O)NCCOC)c3ccccc23)C(=O)N1CC | inconclusive [inhibitor, partial curve]
CCN(CC)CCCC(C)n1c(-c2ccccc2)nc2c(N3CCOCC3)nc(C)nc21 (centres undefined) | inactive
CN1C2CC(OC(=O)C(CO)c3ccccc3)C[C@@H]1[C@H]1OC21 (some centres undefined) | inactive
COc1cc(OC)c2c(=O)c(OC)c(-c3ccc(OC)c(OC)c3)oc2c1 | inconclusive [inhibitor, single point]
O=C(Nc1ccccc1)Nc1cccn(Cc2c(F)cccc2Cl)c1=O | inconclusive [inhibitor, partial curve]
O=C(O)Cc1sc(Nc2ccc(F)cc2)nc1-c1cccs1 | inactive
CCOC(=O)c1c(NC(=O)N/N=C/c2ccc(O)c(OC)c2)sc(C(C)=O)c1C | inconclusive [inhibitor, single point]
COc1ccc(-n2c(=S)[nH]c3c(oc4ccccc43)c2=O)cc1 | inactive
NC(=O)CC[C@@H]1NC(=O)[C@H](Cc2ccccc2)NC(=O)[C@H](Cc2ccc(O)cc2)NC(=O)[C@@H](N)CSSC[C@@H](C(=O)N2CCC[C@H]2C(=O)N[C@@H](CCCN=C(N)N)C(=O)NCC(N)=O)NC(=O)[C@H](CC(N)=O)NC1=O | inactive
CCS(=O)(=O)c1c([N+](=O)[O-])ncn1C | inactive
N#CC1=C(N)N2C(=C(C#N)C1c1cccc(Br)c1)Nc1ccccc12 (centres undefined) | inconclusive [inhibitor, single point]
CC1=NN(c2nc(-c3ccc(C)cc3)cs2)C(=O)C1N=Nc1ccccc1O (centres undefined) | inconclusive [inhibitor, single point]
COc1cc(/C=N/NC(=O)c2cc3ccccc3cc2O)ccc1OCCN1CCCCC1 | inactive
CCOC(=O)c1sc(NC(=O)Nc2ccccc2Cl)cc1C | inconclusive [inhibitor, single point]
CCCCCCCCC#CCC#CCC#CCCCC(=O)O | inactive
CC(c1ccccc1)C(Cc1nc2ccccc2[nH]1)c1nc2ccccc2[nH]1 (centres undefined) | inconclusive [inhibitor, single point]
CC(=O)O[C@@]12CO[C@@H]1C[C@H](O)[C@@]1(C)C(=O)[C@H](O)C3=C(C)[C@@H](OC(=O)[C@H](O)[C@@H](NC(=O)OC(C)(C)C)c4ccccc4)C[C@](O)([C@@H](OC(=O)c4ccccc4)[C@H]21)C3(C)C | inconclusive [inhibitor, partial curve]

From PubChem BioAssay AID1454 (National Center for Advancing Translational Sciences (NCATS), 2008)
